# The list shows a part of the results, in another mix than the full data. The list includes weakly bound sequences.
# How the values were obtained:
# Test in all cases: protein-binding microarray (PBM)
# Conditions in all cases: PBM: ~300 nM protein, 6 mM HEPES pH 7.8, 80 mM KCl, 0.5 mM EDTA, 0.5 mM EGTA, 6% glycerol, 35 ng/ul poly-dIdC, 1% milk, 1 h, room temperature; Ap Aiptasia and Nv Nematostella (sea anemones) / Co Capsaspora / Aq Amphimedon (sponge) / Dm Drosophila / Hu human; RHD is the Rel homology domain; high values mean tight binding; most listed sequences are background and not binding sites; double strand, one strand shown
# GST-Ap-NF-kB RHD = molecular target: T1, GST-Ap-NF-kB RHD (UniProt A0A913YAJ5)
# T1 sequence: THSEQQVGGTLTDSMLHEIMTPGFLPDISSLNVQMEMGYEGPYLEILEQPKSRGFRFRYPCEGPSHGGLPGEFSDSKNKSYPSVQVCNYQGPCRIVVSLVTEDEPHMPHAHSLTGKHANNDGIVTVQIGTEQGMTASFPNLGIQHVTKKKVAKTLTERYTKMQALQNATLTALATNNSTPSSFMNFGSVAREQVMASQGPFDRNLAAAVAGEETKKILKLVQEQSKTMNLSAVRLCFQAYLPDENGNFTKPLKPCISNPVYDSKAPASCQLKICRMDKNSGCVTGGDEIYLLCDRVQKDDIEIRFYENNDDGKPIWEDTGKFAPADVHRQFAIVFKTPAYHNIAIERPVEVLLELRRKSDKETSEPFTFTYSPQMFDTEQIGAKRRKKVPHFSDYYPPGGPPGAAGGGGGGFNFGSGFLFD
# [1] = molecular target: T2, GST-Nv-NF-kB (Cys allele) (UniProt E5G601)
# T2 sequence: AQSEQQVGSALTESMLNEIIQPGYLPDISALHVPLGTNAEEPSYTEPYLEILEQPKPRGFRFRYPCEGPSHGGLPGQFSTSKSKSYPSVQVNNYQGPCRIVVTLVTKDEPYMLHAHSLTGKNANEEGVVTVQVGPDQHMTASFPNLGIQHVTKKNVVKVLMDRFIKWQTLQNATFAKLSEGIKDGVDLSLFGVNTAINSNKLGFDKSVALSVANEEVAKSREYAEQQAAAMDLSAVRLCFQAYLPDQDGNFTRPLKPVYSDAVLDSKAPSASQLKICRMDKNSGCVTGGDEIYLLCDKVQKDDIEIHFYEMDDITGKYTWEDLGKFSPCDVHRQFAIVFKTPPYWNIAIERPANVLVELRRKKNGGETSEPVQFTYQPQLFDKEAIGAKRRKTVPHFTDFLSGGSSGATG
# GST-Co-NF-kB = molecular target: T3, GST-Co-NF-kB (UniProt F1ARL5)
# T3 sequence: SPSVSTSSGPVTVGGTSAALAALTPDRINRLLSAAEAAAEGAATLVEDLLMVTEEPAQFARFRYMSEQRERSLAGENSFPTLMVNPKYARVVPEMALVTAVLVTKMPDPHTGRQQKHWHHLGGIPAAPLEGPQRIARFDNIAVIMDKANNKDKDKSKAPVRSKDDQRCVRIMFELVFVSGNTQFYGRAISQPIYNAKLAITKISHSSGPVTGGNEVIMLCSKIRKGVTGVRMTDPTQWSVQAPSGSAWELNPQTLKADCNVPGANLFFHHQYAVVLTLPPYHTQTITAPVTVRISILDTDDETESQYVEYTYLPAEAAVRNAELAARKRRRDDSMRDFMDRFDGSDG
# GST-Dm-Relish = molecular target: T4, GST-Dm-Relish (UniProt Q94527)
# T4 sequence: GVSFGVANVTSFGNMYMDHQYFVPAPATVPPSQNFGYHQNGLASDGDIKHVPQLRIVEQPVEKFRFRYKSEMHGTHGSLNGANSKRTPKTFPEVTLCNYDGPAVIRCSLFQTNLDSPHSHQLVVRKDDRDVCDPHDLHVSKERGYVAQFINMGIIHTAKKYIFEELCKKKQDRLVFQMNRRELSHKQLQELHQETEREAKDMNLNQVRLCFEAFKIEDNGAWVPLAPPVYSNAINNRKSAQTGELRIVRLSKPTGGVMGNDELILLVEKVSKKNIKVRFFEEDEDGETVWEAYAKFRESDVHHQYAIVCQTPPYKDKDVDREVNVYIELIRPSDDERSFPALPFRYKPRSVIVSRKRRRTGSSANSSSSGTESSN
# GST-Aq-NF-kB = molecular target: T5, GST-Aq-NF-kB (UniProt A9Y5G7)
# T5 sequence: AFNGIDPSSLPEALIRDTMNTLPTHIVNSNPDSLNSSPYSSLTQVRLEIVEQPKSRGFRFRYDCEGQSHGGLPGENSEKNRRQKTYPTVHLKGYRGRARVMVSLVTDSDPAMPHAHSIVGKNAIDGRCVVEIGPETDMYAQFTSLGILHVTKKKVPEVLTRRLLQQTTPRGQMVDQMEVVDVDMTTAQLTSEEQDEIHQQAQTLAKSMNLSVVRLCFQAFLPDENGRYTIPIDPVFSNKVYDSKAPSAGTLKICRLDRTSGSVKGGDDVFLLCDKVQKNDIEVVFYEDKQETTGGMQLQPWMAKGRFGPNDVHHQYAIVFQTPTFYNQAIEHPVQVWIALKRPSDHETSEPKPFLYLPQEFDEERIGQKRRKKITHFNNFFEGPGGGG
Sequence,binding signal (GST-Ap-NF-kB RHD),binding signal [1],binding signal (GST-Co-NF-kB),binding signal (GST-Dm-Relish),binding signal (GST-Aq-NF-kB)
CCGATTAACATCATAAGTCCTAGTGATGTTAATCGGGTCTTGATTCGCTTGACGCTGCTG,0.102 z-score,0.172 z-score,-0.266 z-score,-0.218 z-score,-0.054 z-score
CCGATTAACATCATTCTAGGGCGTGATGTTAATCGGGTCTTGATTCGCTTGACGCTGCTG,0.194 z-score,-0.541 z-score,0.52 z-score,-0.484 z-score,-0.175 z-score
CCGATTAACATCAACAAGCCCACTGATGTTAATCGGGTCTTGATTCGCTTGACGCTGCTG,0.00956 z-score,0.189 z-score,0.0983 z-score,0.223 z-score,-0.0918 z-score
CCGATTAACATCACTAACATTCCTGATGTTAATCGGGTCTTGATTCGCTTGACGCTGCTG,0.501 z-score,0.00591 z-score,0.876 z-score,0.439 z-score,0.142 z-score
CCGATTAACATCATATCTTCAGGTGATGTTAATCGGGTCTTGATTCGCTTGACGCTGCTG,0.356 z-score,-0.525 z-score,-0.0345 z-score,0.394 z-score,0.275 z-score
CCGATTAACATCACTAGGTCGCCTGATGTTAATCGGGTCTTGATTCGCTTGACGCTGCTG,-0.324 z-score,-0.322 z-score,0.000351 z-score,-0.57 z-score,-0.512 z-score
CCGATTAACATCAGGCAAAACCCTGATGTTAATCGGGTCTTGATTCGCTTGACGCTGCTG,0.663 z-score,0.406 z-score,-0.66 z-score,0.922 z-score,3.28 z-score
CCGATTAACATCAGGGTCTATGATGATGTTAATCGGGTCTTGATTCGCTTGACGCTGCTG,-0.221 z-score,-0.0391 z-score,0.0334 z-score,-0.0406 z-score,0.251 z-score
CCGATTAACATCAAGCGCTTCAATGATGTTAATCGGGTCTTGATTCGCTTGACGCTGCTG,-1.07 z-score,0.0188 z-score,-2.03 z-score,-0.696 z-score,-0.577 z-score
CCGATTAACATCAACTGCTCACATGATGTTAATCGGGTCTTGATTCGCTTGACGCTGCTG,-0.324 z-score,-1.02 z-score,-0.347 z-score,-1.02 z-score,-0.58 z-score
CCGATTAACATCAAAATGCATGATGATGTTAATCGGGTCTTGATTCGCTTGACGCTGCTG,-0.274 z-score,-0.0857 z-score,-0.339 z-score,-0.595 z-score,-0.384 z-score
CCGATTAACATCAATAATTTTCCTGATGTTAATCGGGTCTTGATTCGCTTGACGCTGCTG,-0.14 z-score,0.287 z-score,0.806 z-score,0.631 z-score,0.956 z-score
CCGATTAACATCATACGCATCTCTGATGTTAATCGGGTCTTGATTCGCTTGACGCTGCTG,-0.232 z-score,-0.292 z-score,-0.915 z-score,-0.628 z-score,-0.345 z-score
CCGATTAACATCATGTGGCCTAATGATGTTAATCGGGTCTTGATTCGCTTGACGCTGCTG,-0.342 z-score,-0.648 z-score,-1.06 z-score,-0.492 z-score,-0.222 z-score

# — PMC5700166
